From the RNAGym collection of RNA variant scans (doi:10.7554/elife.90254) come the findings set out here.

The labels stand for the following.
B1: LINE1-full (parent)
chain: UACGUAGGUGGUUUUCCCCUGAUAGUGCUAAGGGGGCCUGGAAGUUUGGACUGGGCAGAGCUCAACACAGCGUGGCAAAGUGGCUGUGGCUAGACUGCCUCUCUGGAUUCCUCGUCACUCAGCAGGGCAUCUCUGAGAGAAAUGCC

Read counts are not given, so values of variants with three or more changes are uncertain.

In the series the parent is B1. Nature of the series: self-cleavage, relative activity (ratio to wild type); higher = more cleavage; in vitro, sequencing; the parent is a self-cleaving ribozyme.
Turning to U39A A50G U119C, the self-cleavage worked out at 1. Next, G35U A43G A59G U73A C146A: 1.84. Under G34A A59U U62A stands 0.02; under G34U U91C U96A, 0.08. On to G35U A94G A142U, for which the self-cleavage stood at 0.23. G36U U87A G89A: the self-cleavage amounted to 0.04.

For G33A A43G G53C G86A, the self-cleavage was found to be 0.08. For the variant G33U U81A A94G U109C, the self-cleavage was found to be 0.25. Under U39A A57G U85C C90U stands 0.05; under C38U U52A U102C, 1.18; under G33U G82A U100A A117G C128U, 0.8. Next, U39A A59G A142G: 0.11. Next, G33U A67G U112A U115C: 0.27; G34U A59U A67C A78G U134A A140G: 0.03. On to G34U U62C U91G U115C C146U, for which the self-cleavage was 0.64.

In the case of C37U A57G A69U A124U, the self-cleavage turned out to be 0.06. Under C37G A77U U108A stands 1.27; under C38U A42G G74U U100C, 1.87; under G32A U45C A140G, 0.68. Take G35A A65G A107G U130C A142G: the self-cleavage is 0. Turning to G32A G36A A69G U73C G93U, the self-cleavage came out at 0.03.

Turning to G35A U73A U100C, the self-cleavage amounted to 2.28. Under G32A C66U U73C U100C U132C stands 0.1; under G35A A43U U62C A136G, 0.01; under G35A A69G U102A, 0.5. As for G33U U47C A65G U85C U104C, the self-cleavage was determined as 0. Next, G32C G41U U87A U108C A142G: 0.15; G33A G89A A141G: 0.06. Take G32A A50G A129G: the self-cleavage amounted to 0.89. For G36U A57G A79U, the self-cleavage is 0.85. With C38A A50G A69U U91C U134C, the self-cleavage was 0.03. Regarding C37G U39A G41A U62A A79G U96C, the self-cleavage turned out to be 0.07. Under C37U U47C A79G A129U stands 1.29; under C38A U73C U102A A136U A140G, 2.13; under G32U U81A A94G U115A, 0.31. Under C37G U62C U108A stands 0.02. As to G32U G36A A64U, the self-cleavage stood at 0.46. Next, G36A A94G U96C: 0.02. Next, G33A A57U U62C A136G: 0.12; C37G U62A G137A: 0.08. In the case of G33U U46A A124U, the self-cleavage is 1.44. Regarding G35A U47C G48A U108C C133A, the self-cleavage stood at 0.98.

For the variant G35A U96A U119A, the self-cleavage was 0.05. Consider A31U U39C A69G G97A U104G, for which the self-cleavage is 0.1.

In the case of C38U C99A A141G, the self-cleavage was determined as 1. Under C38U A64G U130C stands 0.16; under A31U G75C U115A A121G A129G, 1.02; under G36A U47A G70A U91C A140G, 0.02.

Turning to U39A A42G U119A A138G, the self-cleavage is 1.4. For G36A U39C U119C A129G, the self-cleavage is 1.57.

In the case of G34A U102A A136G U143G, the self-cleavage came out at 0.29. Next, A31U C51U U104C G126U: 0.63. Next, G32A U39C U73A U100A: 0.43. For C38A G54A U102C, the self-cleavage was found to be 0.22. Under G36A A92C C111U stands 0.06. Turning to G36C G126U A142G, the self-cleavage came to 1.94.

For the variant C38A A129G A140G, the self-cleavage was found to be 1.18. For U39A A57G A121G, the self-cleavage stood at 1.29. For G33U C38U U47A A121U U132A, the self-cleavage came to 1.42. Under G35A U62C U96A U100C A141G stands 0. For the variant G35A U87C A142G C146U, the self-cleavage was determined as 0.1.

A31U U47A U102C A141G: the self-cleavage amounted to 1.69. Next, G36C A42U A43G A107G: 0.82; G32A A50G C133A U134C: 0.96. As to G36A A65U A67G A79G A107G, the self-cleavage came out at 0. Consider U39A A65G A129G A136U, for which the self-cleavage stood at 0. For the variant G33U G75A U87C, the self-cleavage was determined as 0.05. Under C37U U119C U134C stands 1.42; under G33A C76U A129G, 2.3.

In the case of G34A G49U U62C, the self-cleavage is 0.04.

Consider A31U U130A A141C, for which the self-cleavage was 1.26. Regarding G32A U47C U62C A79G, the self-cleavage was determined as 0.06. In the case of G32U U52C G70A A107G, the self-cleavage came to 0.09.

G36C A64U A138G: the self-cleavage came to 0.54.

In the case of G32A A64C U134C, the self-cleavage came out at 0.32. Under G34A A67U A121G U132C stands 0.57. C37A A50U A124U: the self-cleavage turned out to be 0.63. Under C37U A69U U73A U132G stands 0.03; under G36U U47A C63U, 0.16. Next, C38A U46C A136G: 1.22; C38U C71A U119C G137U: 0.45; G33A A57U A65U A107C U115C: 0.08. Under G36C A43G C63U U85C stands 0.04; under G36U A50G U81C, 0.49; under C37U U47C U134C, 1.4. As to U39A A50G U62C, the self-cleavage came to 0.11. Next, G32C U47A A50U A59G A77G U109A A121U: 0.17. Regarding G32U U46A A136U, the self-cleavage was determined as 1.17. Under G35U A64G U85C stands 0.13. Next, G34A U73G A92G A129G: 0.08. For the variant C37A A67G C133A A136G, the self-cleavage stood at 0.14. As for U39A A43G U104A, the self-cleavage was determined as 0.45. Next, G33C U102C A117G: 0.51. Next, A31U G53A U96G U143A: 0.06; G35U U81A A142C: 2.1. Under G36A U52A A57G A94U stands 0.05; under C37U U39A A67U A78C, 0.09; under G35A U62C U109A C111A A138G, 0.02. In the case of G35A A65G G82A, the self-cleavage worked out at 0.01.

For the variant C37U U39A U73C A140G, the self-cleavage came to 1.47. Regarding C37U U39C G93U, the self-cleavage stood at 0.02. Next, G33U U73A A92G: 0.13; U39A A42U A57G U87C: 0.23; G32A A141G U143C: 2.22. Under G35U U52A G53A stands 1.36; under C38U U46C U87C U108C U130C U143C, 0.63; under G34U A50U U81A U115A, 1.59. Next, G32C G89A U108C U112A: 0.04; G32C U102C A142G: 2.9. As for G35U A64U U73C A141G, the self-cleavage amounted to 0.48. On to G35A A42G U46C C76A, for which the self-cleavage was 1.59. Next, G36A A57U U96C: 0; G35A C76U C118A: 2.44. Turning to G32C C61U U134A, the self-cleavage is 0. Turning to G32A U46C A140G, the self-cleavage stood at 0.92. Turning to G34U U87A A129G, the self-cleavage is 0.12. Under G32A C131U U134C stands 0.96. Under G33A A78G U85C A136U A140U stands 0.12; under G34A G49C A50G U102C, 0.57; under G34A A42U A64G A94G, 0. Under G36A U62C A121G A141G stands 0.06. As to U39A A50U A64U U130C, the self-cleavage came out at 0.23. Under G36A A50G U87A stands 0.04; under G35C U96A C146U, 0.04; under G35A C103G A121G, 1.71.

Take U39A A43G A67U U73C: the self-cleavage worked out at 0. G35A U52C U62A A142G: the self-cleavage came out at 0.05. Under U39A A65G A129C stands 0.06; under C38A A92G U104C A142G, 0.08; under C38U G74A A78U, 1.79. Under G33U U47C U52C G86A stands 0.1; under C38U U39G U62C A129G, 0; under U39A A65G A107U U115C, 0.31. Under C37U A77G U109C stands 1.89.

Consider G33U U39A A59G U102C, for which the self-cleavage worked out at 0.13.

Turning to G36U A94G A107G, the self-cleavage was 0.1.

As for G32U A77G U102C, the self-cleavage is 1.49.

A31U U73G A117U U119C A140G: the self-cleavage amounted to 1.7. Under G32A U47C G60A U130C A141G stands 0.04; under G36A A59U U115A, 0.58. With G35A G48U A77G U108C A136G, the self-cleavage came to 2.99. As for G32A G34A A67G U104A A141G, the self-cleavage stood at 0.31.

Regarding G36U U96C U119C A141G, the self-cleavage was found to be 0.18. For the variant G36U C118U U119A, the self-cleavage came out at 0.71.

For G34A A92G U100A U132C, the self-cleavage came to 0.

Regarding G34U A42G A57G U87A, the self-cleavage is 0.18.

For the variant G32A A50G A77U G83U G139A, the self-cleavage is 0.25. Under U39A A42G A57U U73C U81C U109A U134C stands 0; under G33U A94G A121U, 0.22. Under G33U U47A A65G U119A stands 0; under G34A U47A A57G, 0.61; under G33A G34A A67G U112A, 0.53.

For the variant A31U G114U A142G, the self-cleavage was 0.73.

Turning to G34U A64C U115C U134C, the self-cleavage was 0.34. With G34U U134C U143G, the self-cleavage came out at 1.61. For the variant G36A A78G U85C, the self-cleavage was found to be 0.09.

G34A U85C U87C A107G: the self-cleavage was 0.31. For C37G U73A U100C U115C, the self-cleavage is 1.19.

G33U A94G U104C U115C: the self-cleavage was found to be 0. Under G33A U73C U108C stands 1.31; under G35U A59G U87C, 0; under G32C U87C C99U U134C, 0.26. On to C38U A42C A43G A129G A138G, for which the self-cleavage was 1.72.

In the case of G34U A77U U108A U109A U115C, the self-cleavage stood at 1.44.

On to G36A U119A A121G, for which the self-cleavage worked out at 1.15. Regarding G35A U96A A141G, the self-cleavage amounted to 0.01. Next, G32U U45G U73A A78U U85C: 0.12.
